# In patent publication US20050282752A1 (published 2005):
# T1: biotinylated human IL-1RI (human, UniProt P14778 18-336, biotinylated)
# T1 chain: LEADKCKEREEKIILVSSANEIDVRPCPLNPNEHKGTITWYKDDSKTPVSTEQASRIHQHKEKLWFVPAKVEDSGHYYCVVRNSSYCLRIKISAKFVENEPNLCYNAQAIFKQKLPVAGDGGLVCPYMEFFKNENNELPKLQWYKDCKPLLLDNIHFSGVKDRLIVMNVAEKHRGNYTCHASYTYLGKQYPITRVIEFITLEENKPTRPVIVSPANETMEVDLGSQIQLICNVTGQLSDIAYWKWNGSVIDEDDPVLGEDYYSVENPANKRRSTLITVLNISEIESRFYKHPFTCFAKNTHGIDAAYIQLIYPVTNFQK
# Target: T1, biotinylated human IL-1RI
# Test: IGEN (ECL) competition, inhibition of IL-1 signaling complex formation
row,EC50 [nM],Binder
1,0.902,IL-1ra R97D mutant protein (ligand) not shown
2,0.712,IL-1ra wild-type protein (human recombinant interleukin-1 receptor antagonist having the sequence of SEQ ID NO: 5) (ligand) not shown
